# Test results taken from PubChem BioAssay AID504333 (National Center for Advancing Translational Sciences (NCATS), 2011).
# The campaign covered roughly 360,000 compounds. About 16,000 (4.4%) were called active. The shares of active, inactive and inconclusive entries below differ from those in the screen. Calls come from the whole dose curve; as a rule, active = well fitted inhibition curve with a large enough effect; inconclusive = small, poorly fitted or top-dose-only effect; inactive = no such curve, though single readings can be large or run the other way. Potencies of inconclusive entries are doubtful fits and often do not repeat.
# Target: Bromodomain adjacent to zinc finger domain protein 2B (Homo sapiens) (UniProt Q9UIF8)
# Chain of UniProt Q9UIF8 (Q9UIF8 whole entry, looked up, the tested form may be a part): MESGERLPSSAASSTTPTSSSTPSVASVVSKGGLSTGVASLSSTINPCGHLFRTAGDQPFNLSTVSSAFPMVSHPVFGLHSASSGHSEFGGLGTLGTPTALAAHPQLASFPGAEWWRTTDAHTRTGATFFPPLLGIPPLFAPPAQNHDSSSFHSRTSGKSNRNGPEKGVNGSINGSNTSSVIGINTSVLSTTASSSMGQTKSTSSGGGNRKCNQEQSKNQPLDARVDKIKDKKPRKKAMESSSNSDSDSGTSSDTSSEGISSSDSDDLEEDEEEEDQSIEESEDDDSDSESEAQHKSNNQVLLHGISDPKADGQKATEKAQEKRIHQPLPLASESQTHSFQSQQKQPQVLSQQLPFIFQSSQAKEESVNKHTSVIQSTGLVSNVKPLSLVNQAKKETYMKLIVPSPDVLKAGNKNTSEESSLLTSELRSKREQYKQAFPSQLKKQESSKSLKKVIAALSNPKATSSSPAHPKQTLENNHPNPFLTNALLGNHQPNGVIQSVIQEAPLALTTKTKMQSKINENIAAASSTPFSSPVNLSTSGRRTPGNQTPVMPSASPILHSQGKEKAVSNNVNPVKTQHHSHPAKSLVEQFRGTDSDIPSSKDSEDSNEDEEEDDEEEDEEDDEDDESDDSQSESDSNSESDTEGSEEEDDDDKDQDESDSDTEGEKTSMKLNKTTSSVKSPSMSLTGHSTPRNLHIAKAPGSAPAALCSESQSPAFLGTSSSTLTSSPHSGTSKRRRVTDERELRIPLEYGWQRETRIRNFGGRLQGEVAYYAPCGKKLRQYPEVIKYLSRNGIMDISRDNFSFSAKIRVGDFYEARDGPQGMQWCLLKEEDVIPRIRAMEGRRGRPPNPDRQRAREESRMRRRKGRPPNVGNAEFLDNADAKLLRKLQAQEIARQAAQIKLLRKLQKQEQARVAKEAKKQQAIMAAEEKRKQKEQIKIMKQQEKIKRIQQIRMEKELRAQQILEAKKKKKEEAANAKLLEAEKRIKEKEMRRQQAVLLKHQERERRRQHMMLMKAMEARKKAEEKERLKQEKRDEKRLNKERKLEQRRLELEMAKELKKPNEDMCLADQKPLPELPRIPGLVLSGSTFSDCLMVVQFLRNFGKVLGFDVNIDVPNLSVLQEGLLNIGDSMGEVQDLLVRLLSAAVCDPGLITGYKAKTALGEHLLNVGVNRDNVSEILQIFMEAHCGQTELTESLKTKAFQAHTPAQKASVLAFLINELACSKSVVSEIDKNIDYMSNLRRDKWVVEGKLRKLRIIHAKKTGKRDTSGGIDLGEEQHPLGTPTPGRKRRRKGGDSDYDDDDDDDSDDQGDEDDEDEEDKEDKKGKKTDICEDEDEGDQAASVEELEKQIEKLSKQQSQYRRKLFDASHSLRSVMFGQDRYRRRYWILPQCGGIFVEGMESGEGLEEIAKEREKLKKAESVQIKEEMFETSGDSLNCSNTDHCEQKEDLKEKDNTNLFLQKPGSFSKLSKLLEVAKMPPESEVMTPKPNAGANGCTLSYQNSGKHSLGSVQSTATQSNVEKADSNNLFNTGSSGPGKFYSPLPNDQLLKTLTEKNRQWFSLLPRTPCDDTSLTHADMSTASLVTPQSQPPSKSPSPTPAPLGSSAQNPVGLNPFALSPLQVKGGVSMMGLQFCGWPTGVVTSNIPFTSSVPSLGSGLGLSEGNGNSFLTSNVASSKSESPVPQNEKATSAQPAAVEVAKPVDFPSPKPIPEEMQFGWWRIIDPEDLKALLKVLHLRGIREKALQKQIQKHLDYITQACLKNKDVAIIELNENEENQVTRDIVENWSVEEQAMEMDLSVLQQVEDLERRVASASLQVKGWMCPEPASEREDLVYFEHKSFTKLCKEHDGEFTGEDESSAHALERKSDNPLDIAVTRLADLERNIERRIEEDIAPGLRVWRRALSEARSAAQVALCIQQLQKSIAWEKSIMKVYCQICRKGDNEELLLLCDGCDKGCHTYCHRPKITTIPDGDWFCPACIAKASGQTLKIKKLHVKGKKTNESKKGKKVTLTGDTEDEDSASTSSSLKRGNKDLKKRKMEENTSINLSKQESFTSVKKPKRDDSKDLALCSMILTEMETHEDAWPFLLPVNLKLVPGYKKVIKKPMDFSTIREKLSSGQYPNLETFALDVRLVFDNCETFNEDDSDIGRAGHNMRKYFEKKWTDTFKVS
# Experiment: qHTS Assay for Inhibitors of BAZ2B; note: nearly all actives have a fitted effect of over 60% in size
# Conditions: AlphaScreen BAZ2B-H3K14Ac peptide displacement; activity change, negative = inhibition: at 114 µM (top of the series)
# In short: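 AlphaScreen displacement: compounds (up to 110uM) incubated 30 min at room temperature with a preformed 50 nM BAZ2B/50 nM biotinylated H3K14Ac peptide complex in PBS pH 7.4 with Tween-20. Donor and acceptor beads at 10 ug/mL final added, 20 min light-protected before reading.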
# % is set by controls: 0 for no effect and ±100 for the full control effect; potency is the fitted concentration of half-maximal effect; tags give direction and shape of the fitted curve.
Structure (SMILES),Potency,"activity change, negative = inhibition"
O=C(COC(=O)c1sc2cc(Cl)ccc2c1Cl)Nc1ncc(Cl)cc1Cl,"inconclusive: 89.1 µM [inhibitor, single point]",
COC(=O)CSc1nc(N2CCOCC2)c2c(c1C#N)CC(C)(C)OC2,"inconclusive: 100 µM [inhibitor, single point]",
COc1ccccc1N1C(=O)c2ccc(C(=O)Nc3ccc(C(=O)O)cc3)cc2C1=O,,inactive: 2.3%
CCc1nc(SCc2ccc(Cl)cc2)n[nH]1,,inactive: -16.2%
COc1ccccc1N(C(=O)c1snc(C(N)=O)c1N)C(C(=O)NC1CCCCC1)c1cccc(OC)c1OC (stereo not drawn),,inactive: -2.39%
COc1ccc(-n2nc3c(c2NC(=O)CBr)CSC3)cc1,"inconclusive: 89.1 µM [inhibitor, single point]",
COCC(C)n1c(C)cc(C(=O)COC(=O)c2c(C)nn(-c3ccccc3)c2C)c1C (stereo not drawn),"inconclusive: 39.8 µM [inhibitor, partial curve]",
O=C(O)c1ccc(N/N=C/c2ccc(-c3ccc(Br)cc3)o2)cc1,"inconclusive: 79.4 µM [inhibitor, single point]",
COc1ccc(S(=O)(=O)n2nc(C)c(S(=O)(=O)N3CCOCC3)c2C)cc1OC,"inconclusive: 56.2 µM [inhibitor, single point]",
Cn1cccc1/C=N\NC(=O)C1COc2ccc(C(C)(C)C)cc2O1 (stereo not drawn),active: 35.5 µM,
COc1ccc(Br)cc1/C=N/NC(=O)c1cccnc1,"inconclusive: 89.1 µM [inhibitor, single point]",
COCCCNC(=O)/C(C#N)=C/c1c(N2CCN(C)CC2)nc2c(C)cccn2c1=O,,inactive: 5.01%
CC1CN(Cc2c(O)ccc3c(=O)c(-c4ccccc4Cl)coc23)CC(C)O1 (stereo not drawn),,inactive: -35.4%
N#C/C(=C\c1ccc(C(=O)O)cc1)S(=O)(=O)c1cc(Br)ccc1Br,"inconclusive: 79.4 µM [inhibitor, single point]",
COc1ccc(-c2nc(-c3ccccn3)ncc2S(C)(=O)=O)cc1,"inconclusive: 89.1 µM [inhibitor, single point]",
O=C(NC(=S)Nc1ccc(N2CCOCC2)cc1)c1cccc(Cl)c1,active: 17.8 µM,
O=C(Nc1cccnc1)C(Cc1ccccc1)n1cccc1 (stereo not drawn),"inconclusive: 89.1 µM [inhibitor, single point]",
Cc1nn(-c2ccccc2)c(Cl)c1/C=C1\SC(=S)N(C)C1=O,"inconclusive: 3.16 µM [inhibitor, full curve, poor fit]",
CCN1CCN(CC(=O)Nc2ccc(N(C)C)cc2)CC1,"inconclusive: 89.1 µM [inhibitor, single point]",
CCOC(=O)C1=C(C)N(c2ccc(OCC)cc2)C(=O)/C1=C\c1ccco1,active: 8.91 µM,
CCOc1ccccc1NC(=O)C(NS(=O)(=O)c1ccc2c(c1)CCC(=O)N2)c1ccccc1 (stereo not drawn),,inactive: -22.8%
CCO/C(C)=C1/SC(=S)NC1=O,"inconclusive: 50.1 µM [inhibitor, partial curve]",
N#Cc1cnc(SCC(=O)c2ccccc2)nc1N,,inactive: 9.91%

Structure (SMILES),Potency,"activity change, negative = inhibition"
Cn1cc(CN2CCCC(C(=O)Nc3cccc(-c4cc5ccccc5[nH]4)c3)C2)cn1 (stereo not drawn),"inconclusive: 35.5 µM [inhibitor, partial curve]",
CC1CC(C)CN(c2nc(N(C)c3ccccc3)nc(N)c2[N+](=O)[O-])C1 (stereo not drawn),"inconclusive: 31.6 µM [inhibitor, partial curve]",
COc1ccc(CCNCC(O)c2ccccc2)cc1 (stereo not drawn),active: 56.2 µM,
CSCC[C@H](NC(=O)c1nn(C)c(=O)c2ccccc12)c1nc2ccccc2[nH]1,"inconclusive: 89.1 µM [inhibitor, single point]",
CCN(C(=O)C1CCCCC1)c1nnc(-c2cccnc2)s1,"inconclusive: 89.1 µM [inhibitor, single point]",
COc1ccccc1Cn1c(CNS(=O)(=O)c2ccccc2Cl)nc2cccnc21,,inactive: -13.2%
CCOc1ccc(NC(=O)c2cc3c(n(-c4ccc(OC)cc4)c2=O)CC(C)(C)CC3=O)cc1,"inconclusive: 89.1 µM [inhibitor, single point]",
Cc1c(C)n(C)c2ccc(C(=O)NCc3cccs3)cc12,"inconclusive: 50.1 µM [inhibitor, partial curve]",
CC(=O)NC1C(=O)N(CCN2CCOCC2)c2ccc(Br)cc21 (stereo not drawn),active: 10 µM,
CO[C@H]1C=CO[C@@]2(C)Oc3c(C)c(O)c4c(O)c(c(C=NN5CCN(C6CCCC6)CC5)c(O)c4c3C2=O)NC(=O)C(C)=CC=C[C@H](C)[C@H](O)[C@@H](C)[C@@H](O)[C@@H](C)[C@H](OC(C)=O)[C@@H]1C,"inconclusive: 39.8 µM [inhibitor, partial curve]",
O=C(COCc1cc(-c2cccs2)on1)Nc1cccc(Cl)c1Cl,,inactive: 61.7%
O=C(NCCSCc1c(F)cccc1Cl)C1CCN(S(=O)(=O)Cc2ccccc2)CC1,,inactive: -3.98%
CCN1CC2=C(OC(N)=C(C#N)C2c2ccccc2)/C(=C\c2ccccc2)C1 (stereo not drawn),"inconclusive: 35.5 µM [inhibitor, full curve]",
C#CCOCCOCCOCCNc1nc(N2CCN(C(=O)CCCCCCCCCCNC(=O)[C@@H](CCC(=O)O)n3cc(CCCCCN)nn3)CC2)nc(N2CCN(C(=O)CCCCCCCCCCNC(=O)[C@H]([C@@H](C)CC)n3cc(CCCCCN)nn3)CC2)n1,active: 56.2 µM,
Cc1ccc2nc(N(CCCN(C)C)C(=O)c3sc4ccccc4c3Cl)sc2c1,"inconclusive: 44.7 µM [inhibitor, partial curve]",
Cc1ccc(C)c(NC(=O)CSc2nc3ccc(N4C(=O)c5ccccc5C4=O)cc3s2)c1,,inactive: -0.626%
O=C(O)CN1C(=O)/C(=C\c2cccc(OCc3ccccc3)c2)SC1=S,active: 56.2 µM,
Cc1cc(C)c2c(=O)c3c(oc2c1)C(=O)N(Cc1ccc(F)cc1)C3c1cccc(O)c1 (stereo not drawn),,inactive: -23.6%
COc1cccc(C(=O)/C=C/c2ccc(N3CCCCC3)c([N+](=O)[O-])c2)c1,active: 10 µM,
CCOC(=O)c1ccc(NC(=O)CCc2ccc(C)o2)cc1,"inconclusive: 39.8 µM [inhibitor, partial curve, poor fit]",
CCC(=O)N1CCCc2cc(S(=O)(=O)N3CCC(C(=O)Nc4ccc(F)c(F)c4)CC3)ccc21,,inactive: -6.22%
O=C(CCCN1C(=O)/C(=C\c2ccccc2)SC1=S)Nc1cccc(C(=O)O)c1,"inconclusive: 50.1 µM [inhibitor, partial curve]",
COc1ccc(CNc2ccc3cc(S(=O)(=O)N4CCCCC4)ccc3n2)cc1,,inactive: -19.9%

Structure (SMILES),Potency,"activity change, negative = inhibition"
COc1ccc(-c2nc(CS(=O)CC(=O)NC3CCCCC3)c(C)o2)cc1OC (stereo not drawn),,inactive: -15.1%
CCOc1ccc(C(=O)Nc2nnc(S(=O)(=O)N(CC)c3ccccc3C)s2)cc1,,inactive: -22.9%
Cc1cc(C)cc(NC(=O)C2CCC(CNC(=O)[C@@H]3Cc4ccccc4CN3)CC2)c1 (stereo partly drawn),,inactive: -15.6% [at 57.1 µM]
CC(=O)c1ccc(NC(=O)CSc2nnc(NC(=O)CN3CCOCC3)s2)cc1,"inconclusive: 89.1 µM [inhibitor, single point]",
CC(NC(=O)c1nn(C)c2c1CSc1ccccc1-2)c1ccccc1 (stereo not drawn),,inactive: -22.9%
C/C=C\C=C/C(=O)Nc1cccc(C2=NOC3(C2)C[C@@H](C(N)=O)N(C(=O)CCCCC)C3)c1 (stereo partly drawn),,inactive: -4.26%
CCc1c(C(=O)N2CCN(c3ccccc3F)CC2)[nH]c(C)c1C(C)=O,"inconclusive: 89.1 µM [inhibitor, single point]",
O=C(NCc1ccccc1Cl)C(=O)NCC1OCCCN1S(=O)(=O)c1cccs1 (stereo not drawn),"inconclusive: 89.1 µM [inhibitor, single point]",
O=C(CSc1ccccc1C(=O)O)NCc1ccccc1,,inactive: -8.55%
CC(C)[C@H](NC(=O)c1ccco1)C(=O)OCc1cc(=O)n2c(n1)sc1ccccc12,active: 50.1 µM,
O=C(CSc1nnc(-c2cccnc2)n1C1CCCCC1)NC1CCCCC1,,inactive: 10.2%
CCOC(=O)C1(Cc2ccc(Cl)cc2)CCN(C(C)Cc2ccc(O)c(OC)c2)CC1 (stereo not drawn),"inconclusive: 44.7 µM [inhibitor, partial curve]",
O=C(NCc1ccccc1)c1ccc2c(c1)C(=O)N(CC1CCCO1)C2=O (stereo not drawn),"inconclusive: 89.1 µM [inhibitor, single point]",
CCOC(=O)c1c(C)[nH]c(C)c1S(=O)(=O)N1CCC(C(=O)Nc2ccc(F)cc2F)CC1,"inconclusive: 70.8 µM [inhibitor, single point]",
Cc1ccc(Nc2nnc(SCC(=O)Nc3cccc(S(=O)(=O)NC4=NCCCCC4)c3)s2)cc1,"inconclusive: 89.1 µM [inhibitor, single point]",
CN(C)c1ccc(CNS(=O)(=O)c2ccc3c(c2)NC(=O)CS3)cc1,"inconclusive: 56.2 µM [inhibitor, partial curve]",
C=CCn1c(COc2ccc(F)cc2)nnc1SCC(=O)Nc1cccc(S(N)(=O)=O)c1,"inconclusive: 89.1 µM [inhibitor, single point]",
O=C(/C=C/c1ccc(Cl)cc1)N1CCN(c2ccc([N+](=O)[O-])c(N3CCOCC3)c2)CC1,"inconclusive: 56.2 µM [inhibitor, single point]",
COc1ccc(C2=CC3=C(Br)C(=O)C(C)(O)C(=O)C3=CO2)cc1 (stereo not drawn),,inactive: -35.8%
COc1cccc(CN(C)C(=O)c2ccc(OCC(=O)Nc3cccc(C(F)(F)F)c3)c(OC)c2)c1,,inactive: 6.36%
CCn1cc(C2N3CC4(CC)CN2CC(CC)(C3)C4=O)c2ccccc21 (stereo not drawn),"inconclusive: 35.5 µM [inhibitor, partial curve]",
O=C(CN1CCSc2ccccc21)N1CCN(c2ccccc2)CC1,"inconclusive: 44.7 µM [inhibitor, partial curve]",
